Variants at the background level are over-represented here.
B1: TPR 5TU (parent)
chain: GGAUCUUCUCGAUCUAACAAAAAAGACAAAUCUGCCACAAAGCUUGAGAGCAUCUUCGGAUGCAGAGGCGGCAGCCUUCGGUGGCGCGAUAGCGCCAACGUUCUCAACUAUGACACGCAAAACGCGUGCUCCGUUGAAUGGAGUUUAUCAUG

Variants of: B1
Test: polymerase ribozyme fitness, log enrichment relative to wild type (log ratio); higher = more active; in vitro selection for triplet polymerase activity
Procedure, shortened: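 Each subunit of a heterodimeric triplet polymerase ribozyme was represented by a PCR-built, transcribed mutant library that underwent triplicate single-round in vitro selection with frozen incubation at −7 °C. Extended constructs were recovered by gel excision, streptavidin-bead capture and RT-PCR, and Illumina sequencing of input and output libraries kept genotypes with ≥10 input reads and ≥1 read per output. Fitness is the logarithm of genotype enrichment relative to wild-type enrichment, from inverse-variance-weighted replicate averages, with a logarithm base of 2.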

| Variant | polymerase ribozyme fitness (log ratio) |
| --- | --- |
| U55A G74C C118U | ≤ -4.2 |
| U55A C69A G86A G94A C114U U130G U144A | ≤ -4.2 |
| C54U C87G A142C | ≤ -4.2 |
| C54U C76A | -0.561 |
| U53A C93U G140A | ≤ -4.2 |
| U53G G58C U82G A138C U151A | ≤ -4.2 |
| U56A A66G G88A C95G A97C A119C | ≤ -4.2 |
| U55G C87U C93U C108U G141U | ≤ -4.2 |
| C54U C93G C96A C116A U139A | ≤ -4.2 |
| U55A G92U | -1.03 |
| C54U A115G | -3.13 |
| U55A G59A A60G U78A C79G C131G | ≤ -4.2 |
| U55A G59U A60G G94A | -1.02 |
| U55G U127A | -3.34 |
| U55A G83U A137C | ≤ -4.2 |
| C54U U82C C95A G141U | -2.99 |
| C54G G59C G84U U148G | ≤ -4.2 |
| C54A C85U | -1.86 |
| U55A G86A C93A U104C A113U G126A | ≤ -4.2 |
| U55A C72U C93A C99G G140A G143U | ≤ -4.2 |
| C54A A115C G141C | ≤ -4.2 |

| Variant | polymerase ribozyme fitness (log ratio) |
| --- | --- |
| U55C G58A C87G | ≤ -4.2 |
| C54U G67C C87U U127A U148C | ≤ -4.2 |
| U56A A64U C87G | ≤ -4.2 |
| C54G C79U G94C C96U A150G | ≤ -4.2 |
| U53C A66C G83C A97G C108A A119U G140U U144C | ≤ -4.2 |
| U55A A60C C87A A115G | ≤ -4.2 |
| C54A U90C G94U | ≤ -4.2 |
| C54U U56A G80A G83U C96A C105G C116G | ≤ -4.2 |
| U55A A97C | 0.466 |
| U53A C93A C99U G141U | ≤ -4.2 |
| U55G G74U U90G C105U C118U | ≤ -4.2 |
| U55G G86C | ≤ -4.2 |
| U55G G86U | -0.476 |
| U53A U135A | -1.55 |
| U55C U56A A98U U145A | -1.11 |
| C54G A66C G70C G100C | ≤ -4.2 |
| C54G C72U C85A A89C C96A C116G | ≤ -4.2 |
| U55A U144G U148C | ≤ -4.2 |
| C54A U55G G58U G81C C85A | -2.41 |
| C54G U82G G94A U104C G117A A119U G124U G136A U151G | ≤ -4.2 |
| U56A A60U C93U G141U | -3.71 |

| Variant | polymerase ribozyme fitness (log ratio) |
| --- | --- |
| U55A G62C C79A A138U | ≤ -4.2 |
| U55C C85U G136C | -3.51 |
| C54U A64G G80A A89G G94A A110U U135G | ≤ -4.2 |
| C54U G84C C93U U144C | ≤ -4.2 |
| C54A G88U A89C | ≤ -4.2 |
| C54U C57A G143C U144C G152U | ≤ -4.2 |
| U53A G81A C85A C131U | -4.19 |
| U53A G88C A91G G133U G136A | ≤ -4.2 |
| C54A U90A C103G A122U | ≤ -4.2 |
| U56A A60C G92U | -1.73 |
| U55G A60G C69U A91G U144A | -2.3 |
| U53G G74A C99G | ≤ -4.2 |
| U55G G84A C99U A106C A122C A137U | ≤ -4.2 |
| U55A C87G C149G | ≤ -4.2 |
| C54U C72G A119U | ≤ -4.2 |
| U55A C93G A137G | ≤ -4.2 |
| U55A C72U C76U U78C G84A | -2.57 |
| U53G C96U C114U A120C A147U | -3.11 |
| U55G U145A | -0.604 |
| U55A G94C | -0.443 |
| C54U U101G | -0.483 |

| Variant | polymerase ribozyme fitness (log ratio) |
| --- | --- |
| U53G C95U | -3.07 |
| U53C A91U U102A C105U A147G | ≤ -4.2 |
| C54U G58A G92A U145A | -3.35 |
| U55A U61A C96A C116G | -2.17 |
| U53G C125A C149G | ≤ -4.2 |
| U53A G71U G86U C93A A97C C116G U151A G152U | ≤ -4.2 |
| U55A U56A G65A C87A | ≤ -4.2 |
| U55A U77C A150C | ≤ -4.2 |
| U53A U127A A137G | ≤ -4.2 |
| U53A C118G | -2.5 |
| C54U G94C G124A | -1.04 |
| U55A G80U G84C C93G G140U G143C | ≤ -4.2 |
| C54G G140A U146A | ≤ -4.2 |
| U53C U90C G94C U104G | ≤ -4.2 |
| C54A C57U G58C C75A C85A A119C C132A | ≤ -4.2 |
| U53G G117C A137G | -2.86 |
| U53C G83C C116G | -3.05 |
| C54U C125G | -1.05 |
| U55A U82C G92A C125G | ≤ -4.2 |
| U55G C87U C116G U139A | ≤ -4.2 |

Reference: the RNAGym collection of RNA variant scans (doi:10.1073/pnas.2313332121)
